These results are taken from the supplement of paper PMC4723716.

The structures appear in SMILES notation. ± gives the uncertainty stated by the source. Whole data set: some 9,900 compounds, median “viability index relative to DMSO control” near 1, cut for the lowest 2% near 0.85. This is one part of the list.

This experiment relates to Plasmodium falciparum NF54 stage V gametocytes. Briefly: viability index relative to DMSO control (fraction); higher = less gametocyte killing. Particulars: 2.5 µM, library set: Broad Institute DOS, incubation time: 72 h. In a few lines:
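Compound at 2.5 µM was incubated for 72 hr at 37°C under low oxygen with P. falciparum NF54 stage V gametocytes (0.75% gametocytemia, 1.25% hematocrit, 10 µl, serum-free screening medium) in 1,536-well plates. Staining used 3 µl of 2.5 µM MitoTracker Red CMXRos plus 0.13% saponin for one to two hours, and red particles of 20–70 µm2 were counted in one imaged field per well. Each viability index is that count relative to the plate mean of solvent-only wells.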
On to `COc1ccccc1NC(=O)N1CC(=O)N2[C@H](C1)[C@@H](c1ccc(C#CC(C)C)cc1)[C@@H]2CO`, for which the viability index was 1.01 ± 0.047.
As for `N#C[C@H]1N[C@H](CO)[C@@H]1c1ccc(C#CC2CCCCC2)cc1`, the figure is 1.13 ± 0.017; as for `N#C[C@H]1[C@@H](c2ccc(-c3cccnc3)cc2)[C@@H](CO)N1C(=O)Nc1ccc(F)cc1`, 1.06 ± 0.047; as for `O=C(c1ccccc1F)N1C[C@H]2[C@@H](c3ccccc31)[C@@H](CO)N2C(=O)Nc1ccccc1`, 0.955 ± 0.049.
The result for `COc1ccc2c3c([nH]c2c1)[C@@H](CO)N(C)C[C@]31CCN(CC1)C(=O)CN(C)C` reads 0.951 ± 0.095; that for `CCCNC(=O)N1C[C@]2(CCN(Cc3nccs3)CC2)c2c([nH]c3cc(OC)ccc23)[C@H]1CO`, 0.946 ± 0.061.
The compound `COCC(=O)N1[C@@H](CO)[C@@H]2c3ccccc3N(C(=O)Nc3ccccc3Cl)C[C@@H]21` registered a viability index of 1.01 ± 0.042.
Take `O=C(Cc1cccnc1)N1CC(=O)N2[C@H](C1)[C@@H](c1ccc(/C=C/c3ccccc3)cc1)[C@@H]2CO`: the viability index worked out at 1 ± 0.029.
As for `C/C=C/c1ccc([C@@H]2[C@@H](CNC(=O)C3CCC3)N(C(=O)NCCC)[C@H]2CO)cc1`, the figure is 1.09 ± 0.035.
Consider `CC(C)[C@@H]1C(=O)N[C@@H](c2ccc(F)cc2)C/C=C/C[C@H](C)Oc2ccccc2C(=O)N1C.CC(C)[C@@H]1C(=O)N[C@@H](c2ccc(F)cc2)C/C=C\C[C@H](C)Oc2ccccc2C(=O)N1C`, for which the viability index stood at 1 ± 0.033.
Take `Cc1ccc(S(=O)(=O)Nc2cccc3c2O[C@@H](CN(C)C(=O)Nc2ccc(C(F)(F)F)cc2)[C@H](C)CN([C@@H](C)CO)C3=O)cc1`: the viability index came to 1.06 ± 0.047.
The result for `C[C@@H]1CN([C@@H](C)CO)C(=O)Cc2cc(NC(=O)C3CC3)ccc2O[C@H]1CN(C)S(=O)(=O)c1cn(C)cn1` reads 1.03 ± 0.0042; that for `CN(C)C(=O)c1cccc(-c2ccc([C@H]3[C@@H](CO)N4CCCCN(CC5CCOCC5)C[C@@H]34)cc2)c1`, 1.017 ± 0.0031; that for `C/C=C/c1ccc([C@H]2[C@@H](CO)N(C(C)=O)[C@H]2CN(C(C)=O)C2CCCC2)cc1`, 0.971 ± 0.07.
Consider `O=C(C[C@H]1C[C@@H]2c3cc(NC(=O)C4CCC4)ccc3O[C@@H]2[C@@H](CO)O1)NC1CCCC1`, for which the viability index worked out at 1.08 ± 0.031.
Take `C[C@H](CO)N1C[C@H](C)[C@H](CN(C)CC2CC2)Oc2ccc(NC(=O)CCC(F)(F)F)cc2CC1=O`: the viability index was 0.953 ± 0.022.
On to `O=C(C[C@@H]1CC[C@@H]2[C@H](COC[C@H](O)CN2S(=O)(=O)c2ccccc2)O1)NCC1CCCCC1`, for which the viability index was 1.088 ± 0.009.
`CC(C)C[C@@H]1COCn2nncc2CCCC(=O)N1` came in with a viability index of 1.02 ± 0.058.
The result for `COCC(=O)N1CC[C@H]2[C@@H]1c1cc(-c3cccc(F)c3)ccc1N(C)[C@H]2CO` reads 1.08 ± 0.035.
`CO[C@H](CN(C)C(=O)c1ccc2c(c1)OCO2)[C@H](C)CN([C@@H](C)CO)S(=O)(=O)c1ccc(Cl)cc1` returned a viability index of 1.03 ± 0.075.
As for `C/C=C/c1ccc([C@H]2[C@@H](CO)N3CCCCN(CCC(F)(F)F)C[C@@H]23)cc1`, the figure is 1.03 ± 0.051.
The result for `C[C@@H]1CCCCO[C@H](CN(C)S(C)(=O)=O)[C@@H](C)CN([C@@H](C)CO)C(=O)c2cc(NC(=O)NC3CCCCC3)ccc2O1` reads 1.09 ± 0.02; that for `COc1ccc(NC(=O)N(C)C[C@@H]2OCCCC[C@H](C)Oc3ccc(NC(=O)c4ccncc4)cc3C(=O)N([C@H](C)CO)C[C@@H]2C)cc1`, 1 ± 0.021; that for `CO[C@H]1CN(C)C(=O)c2cc(NC(=O)c3cnccn3)ccc2OC[C@H](C)NC[C@H]1C`, 1.09 ± 0.041.
As for `C[C@@H]1CN([C@H](C)CO)C(=O)c2ccccc2-c2ccccc2CO[C@H]1CN(C)C(=O)[C@@H](Cc1ccccc1)N(C)C`, the viability index is 1.03 ± 0.1.
The compound `C[C@H](CO)N1C[C@H](C)[C@@H](CN(C)C(=O)Nc2ccnc(N3CCOCC3)c2)OCc2ccccc2-c2ccccc2C1=O` had a viability index of 1.02 ± 0.081.
In turn, `CCNC(=O)C[C@H]1CC[C@H]2[C@@H](COC[C@@H](O)CN2C(=O)C2CCCC2)O1` registered a viability index of 1.02 ± 0.041.
The result for `N#C[C@@H]1[C@@H](c2ccccc2)[C@@H](CO)N1C(=O)c1ccccc1F` reads 1.04 ± 0.067; that for `CO[C@H]1CN(C)C(=O)c2ccc(NC(=O)c3nc4ccccc4s3)cc2OC[C@@H](C)N(Cc2cccnc2)C[C@@H]1C`, 0.98184 ± 0.00094; that for `O=C(Nc1ccccc1F)N[C@@H]1CC[C@@H](CCNC(=O)C2CC2)O[C@H]1CO`, 1.13 ± 0.19.
As for `C[C@H]1CCCCO[C@@H](CN(C)C(=O)C2CCCCC2)[C@@H](C)CN([C@@H](C)CO)C(=O)c2cc(NS(=O)(=O)c3ccccc3)ccc2O1`, the figure is 1.04 ± 0.088.
The result for `COc1ccc(-c2ccc([C@@H]3[C@H](CN(C)S(C)(=O)=O)N[C@@H]3CO)cc2)cc1` reads 0.9719 ± 0.0018; that for `COc1ccc(NC(=O)N(C)C[C@@H]2Oc3ccc(NC(=O)CCN4CCOCC4)cc3C(=O)N([C@@H](C)CO)C[C@H]2C)cc1`, 1.07 ± 0.11; that for `CN(C)C(=O)c1ccc(-c2ccc([C@H]3[C@H]4CN(C(=O)CC5CC5)CC(=O)N4[C@H]3CO)cc2)cc1`, 1.04 ± 0.069.
`O=C(C[C@@H]1C=C[C@@H](NC(=O)Nc2ccccc2F)[C@@H](CO)O1)NCc1ccc(-c2ccccc2)cc1` registered a viability index of 1.09 ± 0.03.
As for `C[C@@H]1CN([C@@H](C)CO)C(=O)c2ccccc2-c2ccccc2CO[C@@H]1CN(C)C(=O)NC1CCCCC1`, the viability index came out at 0.881 ± 0.013.
The result for `C[C@H](CO)N1C[C@H](C)[C@H](CN(C)C(=O)Nc2ccc3c(c2)OCO3)OCc2cn(nn2)CCCC1=O` reads 1.028 ± 0.0083.
Consider `COc1ccccc1CNC(=O)C[C@@H]1CC[C@@H]2[C@H](COc3ccc(NC(C)=O)cc3C(=O)N2C)O1`, for which the viability index was found to be 1.1 ± 0.072.
Compound `Cc1noc(C)c1NC(=O)Nc1ccc2c(c1)C(=O)N(C)[C@@H]1CC[C@@H](CC(=O)N[C@H]3CCN(Cc4ccccc4)C3)O[C@H]1CO2` came in with a viability index of 1.15 ± 0.023.
In turn, `COc1ccccc1-c1ccc2c(c1)[C@@H]1[C@@H](CCN1C(=O)C1CCC1)[C@H](CO)N2` gave a viability index of 0.655 ± 0.025.
As for `Cc1noc(C)c1S(=O)(=O)N(C)C[C@H]1OCCCC[C@H](C)Oc2ccc(N(C)C)cc2C(=O)N([C@H](C)CO)C[C@@H]1C`, the figure is 1.05 ± 0.072; as for `C/C=C/c1ccccc1[C@@H]1[C@@H](C#N)N(C(C)=O)[C@H]1CO`, 1.07 ± 0.15; as for `CCC(=O)N1CC[C@@H]2[C@H]1c1cc(-c3ccc(C#N)cc3)ccc1N(C)[C@H]2CO`, 1.1 ± 0.052.
Compound `CCCNC(=O)N1CC2(C1)[C@H](c1ccccc1)[C@@H](CO)N2CC1CCOCC1` showed a viability index of 0.995 ± 0.018.
The result for `COc1cccc(S(=O)(=O)N(C)C[C@H]2OCc3ccccc3-c3c(n(C)c4ccccc34)C(=O)N([C@@H](C)CO)C[C@H]2C)c1` reads 0.833 ± 0.059.
